# Assay results published in the supplement of paper PMC8728848.
# Some of the results follow.
# B1: HPAIIITrx (Helix pomatia), Q1KM18 (protein)
# chain: MLFVTIISLGLLAIVHGQCALKTIAFSAAIDREQTFDANQVVIYDIVITNHGNAYDNSTGLFTAPVDGMYSFQLNLLTIKEKEGWLELVHNGQLKVSVYAKQDSTYDSSSNSVIIKMKEGDRVNVRAHKKSGLFGRDDELYNTFSGHFLSGL
# Legend:
# Assay in all cases: glycan array binding signal (z-score within array); higher = stronger binding
# Settings in all cases: glycan notation: IUPAC condensed, linker removed
# [1] = target: Gal3S(b1-3)[Fuc(a1-4)]GlcNAc
# Method in brief: (§1)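 The binding signal is a Z-score computed within each array. Data were drawn from 3228 arrays in the Consortium for Functional Glycomics database, restricted to those with a known protein sequence. Scores were averaged over arrays of the same protein sequence at different concentrations or buffers, and over linkers, and negative values can be taken as non-binding.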
# Gal3S(b1-4)Glc = target: Gal3S(b1-4)Glc
# Method in brief: as §1
# Gal3S(b1-4)Glc6S = target: Gal3S(b1-4)Glc6S
# Method in brief: as §1
# Gal3S(b1-4)GlcNAc = target: Gal3S(b1-4)GlcNAc
# Method in brief: as §1
# Gal3S(b1-4)GlcNAc6S = target: Gal3S(b1-4)GlcNAc6S
# Method in brief: as §1
# [2] = target: Gal3S(b1-4)[Fuc(a1-3)]Glc
# Method in brief: as §1
# [3] = target: Gal3S(b1-4)[Fuc(a1-3)]Glc6S
# Method in brief: as §1
# [4] = target: Gal3S(b1-4)[Fuc(a1-3)]GlcNAc
# Method in brief: as §1
# [5] = target: Gal3S(b1-4)[Fuc(a1-3)]GlcNAc6S
# Method in brief: as §1
# Gal3S4S(b1-4)GlcNAc = target: Gal3S4S(b1-4)GlcNAc
# Method in brief: as §1
# Gal3S6S(b1-4)GlcNAc = target: Gal3S6S(b1-4)GlcNAc
# Method in brief: as §1
# Gal3S6S(b1-4)GlcNAc6S = target: Gal3S6S(b1-4)GlcNAc6S
# Method in brief: as §1
# Gal4S(b1-4)GlcNAc = target: Gal4S(b1-4)GlcNAc
# Method in brief: as §1
# Gal4S6S(b1-4)GlcNAc = target: Gal4S6S(b1-4)GlcNAc
# Method in brief: as §1
# Gal6P(b1-4)GlcNAc = target: Gal6P(b1-4)GlcNAc
# Method in brief: as §1
# Gal6S(b1-3)GlcNAc = target: Gal6S(b1-3)GlcNAc
# Method in brief: as §1
# Gal6S(b1-3)GlcNAc6S = target: Gal6S(b1-3)GlcNAc6S
# Method in brief: as §1
# Gal6S(b1-4)Glc = target: Gal6S(b1-4)Glc
# Method in brief: as §1
# Gal6S(b1-4)Glc6S = target: Gal6S(b1-4)Glc6S
# Method in brief: as §1
# Gal6S(b1-4)GlcNAc = target: Gal6S(b1-4)GlcNAc
# Method in brief: as §1
# Gal6S(b1-4)GlcNAc6S = target: Gal6S(b1-4)GlcNAc6S
# Method in brief: as §1
# GalNAc(a1-3)Gal = target: GalNAc(a1-3)Gal
# Method in brief: as §1
# GalNAc(a1-3)GalNAc = target: GalNAc(a1-3)GalNAc
# Method in brief: as §1
# [6] = target: GalNAc(a1-3)GalNAc(b1-3)Gal(a1-4)Gal(b1-4)Glc
# Method in brief: as §1
# [7] = target: GalNAc(a1-3)GalNAc(b1-3)Gal(a1-4)Gal(b1-4)GlcNAc
# Method in brief: as §1
# GalNAc(b1-3)Gal = target: GalNAc(b1-3)Gal
# Method in brief: as §1
# [8] = target: GalNAc(b1-3)Gal(a1-4)Gal(b1-4)GlcNAc
# Method in brief: as §1
# [9] = target: GalNAc(b1-3)Gal(a1-4)Gal(b1-4)GlcNAc(b1-3)Gal(b1-4)Glc
# Method in brief: as §1
# [10] = target: GalNAc(b1-3)Gal(a1-6)Gal(b1-4)Glc
# Method in brief: as §1
# GalNAc(b1-3)GalNAc = target: GalNAc(b1-3)GalNAc
# Method in brief: as §1
# GalNAc(b1-3)GlcNAc = target: GalNAc(b1-3)GlcNAc
# Method in brief: as §1
# GalNAc(b1-4)Gal(b1-4)Glc = target: GalNAc(b1-4)Gal(b1-4)Glc
# Method in brief: as §1
# GalNAc(b1-4)GlcNAc = target: GalNAc(b1-4)GlcNAc
# Method in brief: as §1
# [11] = target: GalNAc(b1-4)GlcNAc(b1-2)Man
# Method in brief: as §1
# [12] = target: GalNAc(b1-4)GlcNAc(b1-2)Man(a1-3)[GalNAc(b1-4)GlcNAc(b1-2)Man(a1-6)]Man(b1-4)GlcNAc(b1-4)GlcNAc
# Method in brief: as §1
# [13] = target: GalNAc(b1-4)GlcNAc(b1-3)GalNAc(b1-4)GlcNAc
# Method in brief: as §1
# GalNAc(b1-4)GlcNAc6S = target: GalNAc(b1-4)GlcNAc6S
# Method in brief: as §1
# GalNAc(b1-6)GalNAc = target: GalNAc(b1-6)GalNAc
# Method in brief: as §1
# GalNAc3S(b1-4)GlcNAc = target: GalNAc3S(b1-4)GlcNAc
# Method in brief: as §1
# GalNAc3S(b1-4)GlcNAc3S = target: GalNAc3S(b1-4)GlcNAc3S
# Method in brief: as §1
# [14] = target: GalNAc3S(b1-4)[Fuc(a1-3)]GlcNAc
# Method in brief: as §1
# GalNAc4S6S(b1-4)GlcNAc = target: GalNAc4S6S(b1-4)GlcNAc
# Method in brief: as §1
# GalNAc6S(b1-4)GlcNAc = target: GalNAc6S(b1-4)GlcNAc
# Method in brief: as §1
# Glc(a1-4)Glc = target: Glc(a1-4)Glc
# Method in brief: as §1
# [15] = target: Glc(a1-4)Glc(a1-4)Glc(a1-4)Glc
# Method in brief: as §1
binder,measurement,setting,value
B1,glycan array binding signal (z-score),[1],-0.199
same,glycan array binding signal (z-score),Gal3S(b1-4)Glc,0.469
same,glycan array binding signal (z-score),Gal3S(b1-4)Glc6S,0.507
same,glycan array binding signal (z-score),Gal3S(b1-4)GlcNAc,-0.024
same,glycan array binding signal (z-score),Gal3S(b1-4)GlcNAc6S,0.307
same,glycan array binding signal (z-score),[2],-0.474
same,glycan array binding signal (z-score),[3],0.204
same,glycan array binding signal (z-score),[4],-0.24
same,glycan array binding signal (z-score),[5],1.09
same,glycan array binding signal (z-score),Gal3S4S(b1-4)GlcNAc,0.795
same,glycan array binding signal (z-score),Gal3S6S(b1-4)GlcNAc,0.425
same,glycan array binding signal (z-score),Gal3S6S(b1-4)GlcNAc6S,0.795
same,glycan array binding signal (z-score),Gal4S(b1-4)GlcNAc,-0.358
same,glycan array binding signal (z-score),Gal4S6S(b1-4)GlcNAc,0.361
same,glycan array binding signal (z-score),Gal6P(b1-4)GlcNAc,0.126
same,glycan array binding signal (z-score),Gal6S(b1-3)GlcNAc,-0.385
same,glycan array binding signal (z-score),Gal6S(b1-3)GlcNAc6S,0.096
same,glycan array binding signal (z-score),Gal6S(b1-4)Glc,-0.135
same,glycan array binding signal (z-score),Gal6S(b1-4)Glc6S,0.519
same,glycan array binding signal (z-score),Gal6S(b1-4)GlcNAc,-0.28
same,glycan array binding signal (z-score),Gal6S(b1-4)GlcNAc6S,0.61
same,glycan array binding signal (z-score),GalNAc(a1-3)Gal,2.5
same,glycan array binding signal (z-score),GalNAc(a1-3)GalNAc,3.35
same,glycan array binding signal (z-score),[6],5.39
same,glycan array binding signal (z-score),[7],4.56
same,glycan array binding signal (z-score),GalNAc(b1-3)Gal,-0.201
same,glycan array binding signal (z-score),[8],-0.178
same,glycan array binding signal (z-score),[9],-0.456
same,glycan array binding signal (z-score),[10],-0.41
same,glycan array binding signal (z-score),GalNAc(b1-3)GalNAc,-0.254
same,glycan array binding signal (z-score),GalNAc(b1-3)GlcNAc,-0.392
same,glycan array binding signal (z-score),GalNAc(b1-4)Gal(b1-4)Glc,-0.196
same,glycan array binding signal (z-score),GalNAc(b1-4)GlcNAc,-0.239
same,glycan array binding signal (z-score),[11],-0.358
same,glycan array binding signal (z-score),[12],0.75
same,glycan array binding signal (z-score),[13],-0.463
same,glycan array binding signal (z-score),GalNAc(b1-4)GlcNAc6S,-0.265
same,glycan array binding signal (z-score),GalNAc(b1-6)GalNAc,-0.412
same,glycan array binding signal (z-score),GalNAc3S(b1-4)GlcNAc,-0.402
same,glycan array binding signal (z-score),GalNAc3S(b1-4)GlcNAc3S,-0.241
same,glycan array binding signal (z-score),[14],-0.376
same,glycan array binding signal (z-score),GalNAc4S6S(b1-4)GlcNAc,-0.072
same,glycan array binding signal (z-score),GalNAc6S(b1-4)GlcNAc,-0.418
same,glycan array binding signal (z-score),Glc(a1-4)Glc,-0.177
same,glycan array binding signal (z-score),[15],-0.24
